The list shows a part of the results. No stated cut-off is given here; in the data, active = 3.2 or more and inactive = the rest. The signal is at background level for most entries.
B1: ZAP70_HUMAN_292 (peptide)
chain: DTLNSDGYTPEPARI
B2: ZAP70_HUMAN_315 (peptide)
chain: MPMDTSVYESPYSDP
B3: ZAP70_HUMAN_315_YA (peptide)
chain: MPMDTSVYESPASDP
B4: ZAP70_HUMAN_319 (peptide)
chain: TSVYESPYSDPEELK
B5: ZAP70_HUMAN_474 (peptide)
chain: VLLVNRHYAKISDFG
B6: ZAP70_HUMAN_492_YA (peptide)
chain: ALGADDSYATARSAG
B7: ZC3H4_HUMAN_155 (peptide)
chain: SEKGHRKYREYSPPY
B8: ZC3H4_HUMAN_155_YA (peptide)
chain: SEKGHRKYREASPPA
B9: ZC3H4_HUMAN_158_YA (peptide)
chain: GHRKAREYSPPAAPS
B10: ZDHC5_HUMAN_91 (peptide)
chain: DDFRAPLYKTVEIKG
B11: ZMYM2_HUMAN_502 (peptide)
chain: CQSCVSEYKQVGSHP
B12: ZMYM2_HUMAN_680 (peptide)
chain: KLHCIVTYCEYCQEE
B13: BCR_HUMAN_328 (peptide)
chain: FEDCGGGYTPDCSSN
B14: ZN264_HUMAN_343 (peptide)
chain: VHSGENPYECLECGK
B15: ZN598_HUMAN_306_YA (peptide)
chain: GVVGGEDYEEVDRAS
B16: ZN670_HUMAN_281 (peptide)
chain: THTGEKPYECIKCGK
B17: ZO1_HUMAN_1165 (peptide)
chain: EEQPAPGYDTHGRLR
B18: ZO2_HUMAN_1118 (peptide)
chain: AQKHPDIYAVPIKTH

Biological target: SHP2 C-SH2 domain E139D
Experiment: enrichment score (SH2-bound / input frequency) (ratio); bacterial display of known human phosphotyrosine sites (pTyr-Var adds point mutants) read by sequencing; higher = stronger binding; tyrosines were phosphorylated by kinases first
Conditions: peptide library: Human pTyr
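Further: displayed peptides selected on beads carrying the immobilized SH2 domain, with library peptides lacking any tyrosine serving as negative controls.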

Q: How did the enrichment score turn out when B1 was run?
A: The enrichment score was inactive: 0.638.

Q: Which enrichment score does the source give for B2 here?
A: Its enrichment score is inactive: 0.471.

Q: Which enrichment score does the source give for B3 here?
A: Its enrichment score is inactive: 0.6.

Q: B4 was tested. Which enrichment score did it give?
A: The enrichment score was inactive: 1.25.

Q: With B5 as the binder, how does the enrichment score read?
A: The enrichment score was active: 3.48.

Q: With B6 as the binder, how does the enrichment score read?
A: The enrichment score was inactive: 0.605.

Q: How did the enrichment score turn out when B7 was run?
A: Its enrichment score is inactive: 1.14.

Q: B8 was tested. Which enrichment score did it give?
A: The enrichment score was inactive: 0.812.

Q: With B9 as the binder, how does the enrichment score read?
A: Its enrichment score is inactive: 0.742.

Q: For B10, which enrichment score is on record?
A: The enrichment score was inactive: 0.904.

Q: How did the enrichment score turn out when B11 was run?
A: The enrichment score was inactive: 0.797.

Q: With B12 as the binder, how does the enrichment score read?
A: The enrichment score was inactive: 1.9.

Q: B13 was tested. Which enrichment score did it give?
A: The enrichment score was inactive: 0.573.

Q: With B14 as the binder, how does the enrichment score read?
A: The enrichment score was inactive: 0.603.

Q: B15 was tested. Which enrichment score did it give?
A: The enrichment score was inactive: 0.799.

Q: B16 was tested. Which enrichment score did it give?
A: The enrichment score was inactive: 1.35.

Q: Which enrichment score does the source give for B17 here?
A: Its enrichment score is inactive: 0.68.

Q: How did the enrichment score turn out when B18 was run?
A: The enrichment score was inactive: 2.1.

Biological target: SHP2 C-SH2 domain wild-type
Experiment: as above
Conditions: peptide library: Human pTyr

Q: B1 was tested. Which enrichment score did it give?
A: Its enrichment score is inactive: 0.462.

Q: How did the enrichment score turn out when B2 was run?
A: The enrichment score was inactive: 0.443.

Q: For B3, which enrichment score is on record?
A: The enrichment score was inactive: 0.525.

Q: Which enrichment score does the source give for B4 here?
A: Its enrichment score is inactive: 0.915.

Q: For B5, which enrichment score is on record?
A: Its enrichment score is active: 6.88.

Q: B6 was tested. Which enrichment score did it give?
A: Its enrichment score is inactive: 0.532.

Q: B7 was tested. Which enrichment score did it give?
A: The enrichment score was inactive: 0.983.

Q: B8 was tested. Which enrichment score did it give?
A: The enrichment score was inactive: 0.85.

Q: B9 was tested. Which enrichment score did it give?
A: The enrichment score was inactive: 0.593.

Q: With B10 as the binder, how does the enrichment score read?
A: The enrichment score was inactive: 0.799.

Q: How did the enrichment score turn out when B11 was run?
A: The enrichment score was inactive: 0.724.

Q: B12 was tested. Which enrichment score did it give?
A: Its enrichment score is inactive: 2.33.

Q: With B13 as the binder, how does the enrichment score read?
A: The enrichment score was inactive: 0.421.

Q: Which enrichment score does the source give for B14 here?
A: The enrichment score was inactive: 0.512.

Q: How did the enrichment score turn out when B15 was run?
A: The enrichment score was inactive: 0.81.

Q: With B16 as the binder, how does the enrichment score read?
A: The enrichment score was inactive: 0.9.

Q: How did the enrichment score turn out when B17 was run?
A: The enrichment score was inactive: 0.545.

Q: How did the enrichment score turn out when B18 was run?
A: Its enrichment score is inactive: 1.09.

Biological target: SHP2 N-SH2 domain L43F
Experiment: as above
Conditions: peptide library: Human pTyr

Q: With B1 as the binder, how does the enrichment score read?
A: The enrichment score was inactive: 0.506.

Q: B2 was tested. Which enrichment score did it give?
A: The enrichment score was inactive: 0.814.

Q: B3 was tested. Which enrichment score did it give?
A: Its enrichment score is inactive: 0.476.

Q: For B4, which enrichment score is on record?
A: Its enrichment score is inactive: 0.591.

Q: With B5 as the binder, how does the enrichment score read?
A: The enrichment score was inactive: 0.941.

Q: B6 was tested. Which enrichment score did it give?
A: Its enrichment score is inactive: 0.597.

Q: Which enrichment score does the source give for B7 here?
A: Its enrichment score is inactive: 1.07.

Q: B8 was tested. Which enrichment score did it give?
A: The enrichment score was inactive: 0.782.

Q: How did the enrichment score turn out when B9 was run?
A: The enrichment score was inactive: 0.737.

Q: Which enrichment score does the source give for B10 here?
A: The enrichment score was inactive: 0.841.

Q: With B11 as the binder, how does the enrichment score read?
A: Its enrichment score is inactive: 0.556.

Q: B12 was tested. Which enrichment score did it give?
A: Its enrichment score is inactive: 1.86.

Q: For B13, which enrichment score is on record?
A: The enrichment score was inactive: 0.499.

Q: How did the enrichment score turn out when B14 was run?
A: Its enrichment score is inactive: 0.523.

Q: Which enrichment score does the source give for B15 here?
A: The enrichment score was inactive: 0.748.

Q: For B16, which enrichment score is on record?
A: The enrichment score was inactive: 0.986.

Q: With B17 as the binder, how does the enrichment score read?
A: Its enrichment score is inactive: 0.908.

Q: How did the enrichment score turn out when B18 was run?
A: The enrichment score was inactive: 1.24.

Biological target: SHP2 N-SH2 domain T42A
Experiment: as above
Conditions: peptide library: Human pTyr

Q: For B1, which enrichment score is on record?
A: Its enrichment score is inactive: 0.531.

Q: Which enrichment score does the source give for B2 here?
A: The enrichment score was inactive: 0.519.

Q: With B3 as the binder, how does the enrichment score read?
A: The enrichment score was inactive: 0.603.

Q: Which enrichment score does the source give for B4 here?
A: Its enrichment score is inactive: 0.604.

Q: With B5 as the binder, how does the enrichment score read?
A: The enrichment score was inactive: 1.04.

Q: How did the enrichment score turn out when B6 was run?
A: Its enrichment score is inactive: 0.482.

Q: For B7, which enrichment score is on record?
A: The enrichment score was inactive: 0.997.

Q: How did the enrichment score turn out when B8 was run?
A: The enrichment score was inactive: 0.945.

Q: How did the enrichment score turn out when B9 was run?
A: The enrichment score was inactive: 0.583.

Q: B10 was tested. Which enrichment score did it give?
A: Its enrichment score is inactive: 0.632.

Q: B11 was tested. Which enrichment score did it give?
A: Its enrichment score is inactive: 0.699.

Q: With B12 as the binder, how does the enrichment score read?
A: The enrichment score was inactive: 2.36.

Q: How did the enrichment score turn out when B13 was run?
A: Its enrichment score is inactive: 0.4.

Q: B14 was tested. Which enrichment score did it give?
A: The enrichment score was inactive: 0.596.

Q: Which enrichment score does the source give for B15 here?
A: Its enrichment score is inactive: 0.718.

Q: Which enrichment score does the source give for B16 here?
A: The enrichment score was inactive: 0.843.

Q: Which enrichment score does the source give for B17 here?
A: Its enrichment score is inactive: 0.62.

Q: With B18 as the binder, how does the enrichment score read?
A: Its enrichment score is inactive: 1.33.

Biological target: SHP2 N-SH2 domain T52S
Experiment: as above
Conditions: peptide library: Human pTyr

Q: B1 was tested. Which enrichment score did it give?
A: Its enrichment score is inactive: 0.497.

Q: How did the enrichment score turn out when B2 was run?
A: The enrichment score was inactive: 0.481.

Q: How did the enrichment score turn out when B3 was run?
A: The enrichment score was inactive: 0.576.

Q: Which enrichment score does the source give for B4 here?
A: The enrichment score was inactive: 0.524.

Q: B5 was tested. Which enrichment score did it give?
A: The enrichment score was inactive: 1.07.

Q: B6 was tested. Which enrichment score did it give?
A: The enrichment score was inactive: 0.461.

Q: With B7 as the binder, how does the enrichment score read?
A: Its enrichment score is inactive: 1.14.

Q: B8 was tested. Which enrichment score did it give?
A: Its enrichment score is inactive: 0.887.

Q: B9 was tested. Which enrichment score did it give?
A: Its enrichment score is inactive: 0.706.

Q: How did the enrichment score turn out when B10 was run?
A: The enrichment score was inactive: 0.934.

Q: How did the enrichment score turn out when B11 was run?
A: Its enrichment score is inactive: 0.741.

Q: Which enrichment score does the source give for B12 here?
A: The enrichment score was inactive: 2.34.

Q: For B13, which enrichment score is on record?
A: The enrichment score was inactive: 0.413.

Q: How did the enrichment score turn out when B14 was run?
A: The enrichment score was inactive: 0.616.

Q: With B15 as the binder, how does the enrichment score read?
A: Its enrichment score is inactive: 0.811.

Q: For B16, which enrichment score is on record?
A: The enrichment score was inactive: 1.03.

Q: With B17 as the binder, how does the enrichment score read?
A: Its enrichment score is inactive: 0.653.

Q: B18 was tested. Which enrichment score did it give?
A: Its enrichment score is inactive: 1.4.

Biological target: SHP2 N-SH2 domain wild-type
Experiment: as above
Conditions: peptide library: Human pTyr

Q: With B1 as the binder, how does the enrichment score read?
A: Its enrichment score is inactive: 0.594.

Q: Which enrichment score does the source give for B2 here?
A: The enrichment score was inactive: 0.533.

Q: B3 was tested. Which enrichment score did it give?
A: The enrichment score was inactive: 0.568.

Q: With B4 as the binder, how does the enrichment score read?
A: The enrichment score was inactive: 0.819.

Q: Which enrichment score does the source give for B5 here?
A: The enrichment score was inactive: 1.15.

Q: Which enrichment score does the source give for B6 here?
A: The enrichment score was inactive: 0.546.

Q: How did the enrichment score turn out when B7 was run?
A: Its enrichment score is inactive: 1.1.

Q: For B8, which enrichment score is on record?
A: Its enrichment score is inactive: 0.803.

Q: Which enrichment score does the source give for B9 here?
A: Its enrichment score is inactive: 0.777.

Q: How did the enrichment score turn out when B10 was run?
A: Its enrichment score is inactive: 1.

Q: With B11 as the binder, how does the enrichment score read?
A: Its enrichment score is inactive: 0.804.

Q: With B12 as the binder, how does the enrichment score read?
A: Its enrichment score is inactive: 2.65.

Q: B13 was tested. Which enrichment score did it give?
A: The enrichment score was inactive: 0.61.

Q: For B14, which enrichment score is on record?
A: Its enrichment score is inactive: 0.789.

Q: With B15 as the binder, how does the enrichment score read?
A: The enrichment score was inactive: 0.863.

Q: B16 was tested. Which enrichment score did it give?
A: The enrichment score was inactive: 1.18.

Q: B17 was tested. Which enrichment score did it give?
A: Its enrichment score is inactive: 0.655.

Q: With B18 as the binder, how does the enrichment score read?
A: The enrichment score was inactive: 1.72.
